Assay results from PubChem BioAssay AID1460 (National Center for Advancing Translational Sciences (NCATS), 2008).
“And” between values parts separate entries of the source, which are not always exact repeats. Equal values may be shown once. Among all 270,000 compounds or so, about 5,800 (2.1%) were called active. This list was built around the results that the source calls inconclusive (neither active nor inactive); the mix of calls is not that of the screen. The call rests on the fitted dose curve; in most records, active means well fitted inhibition curve with a large enough effect; inconclusive means small, poorly fitted or top-dose-only effect; inactive means flat fitted curve, though single readings scatter. Potencies of inconclusive entries are doubtful fits and often do not repeat.

These compounds were tested against Microtubule-associated protein tau (Homo sapiens) (UniProt P10636) (assay: qHTS for Inhibitors of Tau Fibril Formation, Thioflavin T Binding). Conditions: recombinant tau K18 P301L (four-repeat tau fragment), heparin-induced fibrillization, ThT fluorescence; series mostly up to 57.4 µM; activity, negative = inhibition: at the top concentration.
Method in brief: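 Heparin-induced (20 uM) aggregation of recombinant human K18 P301L tau, 15 uM unlabeled with 0.24 uM labeled, pH 7 acetate buffer, 6 hr at 37 C with compound. Fibrils quantified by 30 uM ThT fluorescence after 1 hr ambient incubation.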
Further: nearly all actives have a fitted effect of over 55% in size.
On the % scale 0 is the no-effect control and ±100 the full control effect; potency means the concentration at half of the fitted maximal effect; tags describe the fitted curve by direction and shape.

Sequence of UniProt P10636 (P10636 whole entry, looked up, the tested form may be a part): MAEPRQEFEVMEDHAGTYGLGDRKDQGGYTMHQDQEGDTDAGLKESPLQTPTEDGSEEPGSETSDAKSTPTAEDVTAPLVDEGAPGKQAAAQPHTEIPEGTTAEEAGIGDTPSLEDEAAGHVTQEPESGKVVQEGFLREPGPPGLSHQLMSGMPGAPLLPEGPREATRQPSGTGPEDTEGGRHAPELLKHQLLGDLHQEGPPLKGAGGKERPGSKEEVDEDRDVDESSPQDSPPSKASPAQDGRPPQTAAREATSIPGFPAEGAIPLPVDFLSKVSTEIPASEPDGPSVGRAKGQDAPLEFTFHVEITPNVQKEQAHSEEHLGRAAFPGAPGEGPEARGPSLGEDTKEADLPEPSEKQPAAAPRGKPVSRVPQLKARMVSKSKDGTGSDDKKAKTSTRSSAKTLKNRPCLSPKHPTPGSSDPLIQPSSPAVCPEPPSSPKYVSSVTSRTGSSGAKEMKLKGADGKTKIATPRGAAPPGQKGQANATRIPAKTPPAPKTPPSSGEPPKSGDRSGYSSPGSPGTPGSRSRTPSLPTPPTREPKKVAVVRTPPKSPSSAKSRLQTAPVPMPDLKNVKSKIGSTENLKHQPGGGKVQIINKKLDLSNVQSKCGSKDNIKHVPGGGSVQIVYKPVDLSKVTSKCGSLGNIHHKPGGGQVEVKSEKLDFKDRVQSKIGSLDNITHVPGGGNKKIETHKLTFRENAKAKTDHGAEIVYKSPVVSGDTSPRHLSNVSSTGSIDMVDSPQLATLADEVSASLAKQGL

SMILES | Potency | activity, negative = inhibition
CCN(CCNC(=O)c1ccc(CSc2nc3ccncc3[nH]2)cc1)c1ccccc1 | inconclusive: 14.1 µM [inhibitor, partial curve] | –
CCOCCCNC(=O)c1c(NC(=O)c2cc(=O)c3ccccc3o2)sc2c1CCC2 | inconclusive: 8.91 µM [inhibitor, partial curve] | –
COc1cc(NC(=O)CN2C(=O)NC(C)(c3ccc4ccccc4c3)C2=O)c(C)cc1[N+](=O)[O-] (centres undefined) | inconclusive: 8.91 µM [inhibitor, partial curve, poor fit] | –
CCN(CC)C(=O)CSc1nc(O)cc(=O)n1C | inconclusive: 20 µM [inhibitor, partial curve] | –
CCc1ccc2oc(-c3ccc(N)cc3)nc2c1 | inconclusive: 15.8 µM [inhibitor, partial curve] | –
Cc1ccc(C(=O)Nc2cccnc2Oc2ccc(Cl)cc2)cc1 | – | inactive: -16.7%
O=C(N/N=C/c1ccncc1)c1ccc(NC(=O)c2cccc(Cl)c2)cc1 | inconclusive: 0.891 µM [inhibitor, full curve] | –
CC1CCCC2(C1)NC(=S)c1c(sc3c1CCCC3)N2 (centres undefined) | active: 17.8 µM | –
Cc1cc(C)c(OCCCCCNCCO)c(C)c1 | – | inactive: -6.13%
Cc1cc(C)c2nc(/N=C(\N)NC(=O)c3ccccc3)nc(C)c2c1 | inconclusive: 6.31 µM [inhibitor, partial curve] | –
COc1cccc(-c2noc(-c3ccoc3C)n2)c1 | inconclusive: 28.2 µM [inhibitor, partial curve, poor fit] | –
CCN(c1ccc(NC(=O)c2ccc(Cl)nc2)cc1)C(C)C | inconclusive: 17.8 µM [inhibitor, partial curve] | –
Cc1cc(=O)oc2cc(OCCSCCN3CCOCC3)ccc12 | inconclusive: 2.24 µM [inhibitor, full curve, poor fit] | –
O=C(CCCN1C(=O)/C(=C\c2ccccc2)SC1=S)Nc1ccc(O)cc1 | inconclusive: 25.1 µM [inhibitor, partial curve] | –
COc1ccc(/C=N/NC(=O)C(=O)N2CCCC2)cc1OC | – | inactive: -6%
Oc1c(Br)cc(Br)c2cccnc12 | – | inactive: -14.3%
O=c1c(Cl)c(N2CCN(c3ccc(F)cc3)CC2)cnn1-c1nc2ccccc2s1 | inconclusive: 1 µM [inhibitor, partial curve, poor fit] | –
O=C1[C@H]2[C@H]3[C@H](O)[C@H](O)C/C(=N/OC[C@@H](O)COCc4ccco4)[C@H]3CC[C@@H]2C(=O)N1C1CCCCC1 | – | inactive: -11.3% [at 11.5 µM]
O=C(Nc1nnc(C2CCCC2)s1)C1CCC1 | – | inactive: -3.72%
CC(C)(C)c1ccc(CCC2OCC(C[N+]3(C)CCOCC3)O2)cc1 (centres undefined) | inconclusive: 25.1 µM [inhibitor, single point] | –
CCOc1ccccc1NC(=O)CN1C(=O)COc2ccc(S(=O)(=O)N3CCCCC3)cc21 | – | inactive: -2.47%
COC(=O)CCC(=O)Nc1ccc(C)cc1OC(=O)CCC(=O)OC | inconclusive: 39.8 µM [inhibitor, single point] | –
C=C(C)C(O)/C=C/c1ccc(Br)cc1 (centres undefined) | inactive and inconclusive: 3.16 µM [inhibitor, partial curve, poor fit] | –

SMILES | Potency | activity, negative = inhibition
CCCn1nc([N+](=O)[O-])c(C(C#N)c2nc3ccccc3s2)c(Cl)c1=O (centres undefined) | active: 3.98 µM | –
CC(C)C(=O)N1CCN(c2ccc(NC(=O)c3cccs3)cc2Cl)CC1 | inconclusive: 31.6 µM [inhibitor, partial curve] | –
O=C(CSc1nc2ccccc2[nH]1)Nc1ccc2c(c1)OCCO2 | inconclusive: 14.1 µM [inhibitor, partial curve] | –
Cc1oc(-c2cccc(Cl)c2)nc1CSCC(=O)NCc1ccccc1Cl | inconclusive: 28.2 µM [inhibitor, partial curve, poor fit] | –
O=C(Nc1cccc(-c2cn3c(n2)SCC3)c1)c1ccc(Br)o1 | inconclusive: 14.1 µM [inhibitor, partial curve] | –
COc1ccccc1CNCC(=O)Nc1ccccc1-n1cccc1 | – | inactive: -5.91%
CC(C)(C)OC(=O)[C@H](Cc1ccccc1)NC(=O)c1nc[nH]c1C(=O)NCc1ccccc1 | – | inactive: 3.71%
C=CC[n+]1c(C)csc1Nc1ccc(C)cc1 | – | inactive: -8.87%
COC(=O)c1ccc(CSc2nnc(NC(=O)C3CC(=O)N(c4ccc5c(c4)OCCO5)C3)s2)cc1 (centres undefined) | inconclusive: 6.31 µM [inhibitor, partial curve, poor fit] | –
Cc1cc(C)c2c(=O)[nH]c(SCC(=O)Nc3ccc(N(C)C)cc3)nc2n1 | inconclusive: 15.8 µM [inhibitor, partial curve] | –
CCn1c(O)c(N=Nc2ccc3ccccc3n2)c2ccccc21 | active: 3.98 µM | –
Cc1ccc(/C=C(\NC(=O)c2ccccc2)C(=O)NCCc2ccccn2)o1 | inconclusive: 28.2 µM [inhibitor, single point] | –
Clc1cccc(CSc2ccc(-c3cccs3)nn2)c1 | inconclusive: 2.24 µM [inhibitor, full curve, poor fit] | –
COC(=O)CN1C(C(=O)c2ccccc2)=C(OC(=O)c2ccc(C)cc2)c2ccccc2S1(=O)=O | inconclusive: 11.2 µM [inhibitor, partial curve, poor fit] | –
Cc1cc2cc(C)c(NCCNC(=O)c3ccccc3F)nc2cc1C | inconclusive: 20 µM [inhibitor, single point] | –
CCOC(=O)c1c(C)oc2nc(C)nc(N3CCN(c4ccc(OC)cc4)CC3)c12 | inconclusive: 28.2 µM [inhibitor, partial curve] | –
COc1ccccc1Cn1c(SCC(=O)C(C)(C)C)nc2ccccc2c1=O | – | inactive: 9.84%
CC(C(=O)Nc1ccc(C#N)cc1)N(C)CC(=O)Nc1cccc(F)c1 (centres undefined) | – | inactive: 0.423%
CCCCC1=CC2=CC(=O)C(C)(OC(=O)CC)C(=O)C2=CN1CCOC (centres undefined) | inconclusive: 3.16 µM [inhibitor, single point] | –
COc1ccc(/C(C)=N/NC(=O)c2nc(C)cc(C)n2)cc1 | inconclusive: 15.8 µM [inhibitor, partial curve] | –
C/C(=N\Nc1ccc2nncn2n1)c1ccc(Cl)s1 | – | inactive: -18.4%
Cc1cccn2c(NCc3ccc4c(c3)OCO4)c(-c3ccc(O)cc3)nc12 | inconclusive: 22.4 µM [inhibitor, single point] | –
CCOC(=O)c1ccc(N/C=C\C(=O)c2cccc(OC)c2)cc1 | inconclusive: 1.41 µM [inhibitor, full curve] | –

SMILES | Potency | activity, negative = inhibition
COC(=O)c1ccccc1NC(=O)CSc1nc2nc(C)cc(C)n2n1 | – | inactive: -11%
O=C(NCCc1c[nH]c2ccccc12)C1CCN(c2nnc(N3CCCC3=O)s2)CC1 | inconclusive: 15.8 µM [inhibitor, partial curve] | –
COc1cccc(/C=N/NC(=O)C(=O)NCc2cccnc2)c1OC | – | inactive: -8.68%
O=[N+]([O-])c1cccc(-c2ccc(/C=N/NC(=S)NCc3ccco3)o2)c1 | inconclusive: 2.51 µM [inhibitor, full curve] | –
Cc1ccc(OCC(=O)Nc2sc3c(c2C(N)=O)CCCC3)c(C(C)(C)C)c1 | – | inactive: 2.62%
CCc1nnc(NC(=O)CN2C(=O)/C(=C/c3ccc(OC)c(OC)c3)SC2=S)s1 | inconclusive: 1.78 µM [inhibitor, partial curve] | –
Cc1cccc(NS(=O)(=O)c2nnc(NC(=O)c3cccc(C)c3)s2)c1 | inconclusive: 1.12 µM [inhibitor, full curve] | –
Cc1cc(C)cc(NC(=O)CCCn2c(=O)c3cccn3c3ccccc32)c1 | inconclusive: 8.91 µM [inhibitor, partial curve] | –
CC(C)(C)n1nnnc1C(c1cccs1)N(Cc1ccccc1)Cc1ccco1 (centres undefined) | inconclusive: 20 µM [inhibitor, single point] | –
COc1ccc(C)cc1NC(=O)N1CCN(c2nnc(C)c3c(C)n(-c4ccccc4)nc23)CC1 | – | inactive: 0.497%
O=C1C(c2c(O)[nH]c3ccccc23)=Nc2ccccc21 | inconclusive: 141 nM [inhibitor, full curve] [middle of 4 runs] | –
CCCOc1ccc(C(=O)O/N=C(\CC)c2ccc(C)cc2)cc1 | inconclusive: 14.1 µM [inhibitor, partial curve] | –
COC(=O)c1ccc(/C=N/Nc2nc(-c3ccc(C)cc3)cs2)cc1 | inconclusive: 12.6 µM [inhibitor, partial curve] | –
COc1c(C)cc(Br)cc1C(=O)Nc1cccc(-c2nc3ncccc3o2)c1 | inconclusive: 3.98 µM [inhibitor, partial curve, poor fit] | –
O=C1CSC(=Nc2ccccc2)N1Cc1ccccc1 | – | inactive: -4.97%
CCOc1ccc(NC(=O)C(=O)NCCc2ccccc2)cc1 | – | inactive: -9.95%
CCc1ccc(S(=O)(=O)Nc2cc3c(cc2N2CCOCC2)n(C)c(=O)c(=O)n3C)cc1 | – | inactive: -2.39%
Cc1cn2c(N)c(/C=C3\C=Nc4ccccc43)c(=O)nc2s1 | inconclusive: 2.82 µM [inhibitor, full curve] | –
O=[N+]([O-])c1cc(-c2nnc(Nc3ccccc3)c3ccccc23)ccc1N1CCOCC1 | inconclusive: 3.55 µM [inhibitor, full curve] | –
Cn1cccc1/C=N/N1CCN(Cc2ccccc2Cl)CC1 | – | inactive: -13.2%
COc1ccc(OCCC(=O)OCC(=O)NCCC2=CCCCC2)cc1 | inconclusive: 8.91 µM [inhibitor, single point] | –
COc1ccc(-c2nc3ccccc3s2)cc1NC(=O)COc1cccc(C)c1 | inconclusive: 3.16 µM [inhibitor, full curve] | –
CCn1c(SC)nc(O)c(C(c2ccc(OC)c(O)c2)c2c(O)nc(SC)n(CC)c2=O)c1=O | inconclusive: 7.94 µM [inhibitor, partial curve] | –
